# In the supplement of paper PMC8728848:
# Some of the results follow.
# Legend:
# Test in all cases: glycan array binding signal (z-score within array); higher = stronger binding
# Conditions in all cases: glycan notation: IUPAC condensed, linker removed
# [1] = target: Fuc(a1-2)Gal6S(b1-3)GlcNAc6S
# In short: (§1)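 The binding signal is a Z-score computed within each array and averaged over linkers. Arrays of the same protein sequence at different concentrations or buffers were also averaged together. Data originate from 3228 arrays in the Consortium for Functional Glycomics database, kept only where the protein sequence was available.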
# [2] = target: Fuc(a1-2)Gal6S(b1-4)Glc
# In short: as §1
# [3] = target: Fuc(a1-2)Gal6S(b1-4)Glc6S
# In short: as §1
# [4] = target: Fuc(a1-2)[Gal(a1-3)]Gal
# In short: as §1
# [5] = target: Fuc(a1-2)[Gal(a1-3)]Gal(b1-3)GalNAc
# In short: as §1
# [6] = target: Fuc(a1-2)[Gal(a1-3)]Gal(b1-3)GalNAc(b1-3)Gal(a1-4)Gal(b1-4)Glc
# In short: as §1
# [7] = target: Fuc(a1-2)[Gal(a1-3)]Gal(b1-3)GlcNAc
# In short: as §1
# [8] = target: Fuc(a1-2)[Gal(a1-3)]Gal(b1-3)GlcNAc(b1-2)Man(a1-3)[Fuc(a1-2)[Gal(a1-3)]Gal(b1-3)GlcNAc(b1-2)Man(a1-6)]Man(b1-4)GlcNAc(b1-4)GlcNAc
# In short: as §1
# [9] = target: Fuc(a1-2)[Gal(a1-3)]Gal(b1-3)GlcNAc(b1-2)Man(a1-3)[Fuc(a1-2)[Gal(a1-3)]Gal(b1-3)GlcNAc(b1-2)Man(a1-6)]Man(b1-4)GlcNAc(b1-4)[Fuc(a1-6)]GlcNAc
# In short: as §1
# [10] = target: Fuc(a1-2)[Gal(a1-3)]Gal(b1-3)GlcNAc(b1-3)GalNAc
# In short: as §1
# [11] = target: Fuc(a1-2)[Gal(a1-3)]Gal(b1-3)GlcNAc(b1-6)GalNAc
# In short: as §1
# [12] = target: Fuc(a1-2)[Gal(a1-3)]Gal(b1-4)Glc
# In short: as §1
# [13] = target: Fuc(a1-2)[Gal(a1-3)]Gal(b1-4)GlcNAc
# In short: as §1
# [14] = target: Fuc(a1-2)[Gal(a1-3)]Gal(b1-4)GlcNAc(b1-2)Man
# In short: as §1
# [15] = target: Fuc(a1-2)[Gal(a1-3)]Gal(b1-4)GlcNAc(b1-2)Man(a1-3)[Fuc(a1-2)[Gal(a1-3)]Gal(b1-4)GlcNAc(b1-2)Man(a1-6)]Man(b1-4)GlcNAc(b1-4)GlcNAc
# In short: as §1
# [16] = target: Fuc(a1-2)[Gal(a1-3)]Gal(b1-4)GlcNAc(b1-2)Man(a1-3)[Fuc(a1-2)[Gal(a1-3)]Gal(b1-4)GlcNAc(b1-2)Man(a1-6)]Man(b1-4)GlcNAc(b1-4)[Fuc(a1-6)]GlcNAc
# In short: as §1
# [17] = target: Fuc(a1-2)[Gal(a1-3)]Gal(b1-4)GlcNAc(b1-3)GalNAc
# In short: as §1
# [18] = target: Fuc(a1-2)[Gal(a1-3)]Gal(b1-4)GlcNAc(b1-3)[Fuc(a1-2)[Gal(a1-3)]Gal(b1-4)GlcNAc(b1-6)]GalNAc
# In short: as §1
# [19] = target: Fuc(a1-2)[Gal(a1-3)]Gal(b1-4)GlcNAc(b1-6)GalNAc
# In short: as §1
# [20] = target: Fuc(a1-2)[Gal(a1-3)]Gal(b1-4)[Fuc(a1-3)]Glc
# In short: as §1
# [21] = target: Fuc(a1-2)[Gal(a1-3)]Gal(b1-4)[Fuc(a1-3)]GlcNAc
# In short: as §1
# [22] = target: Fuc(a1-2)[Gal(a1-3)]Gal(b1-4)[Fuc(a1-3)]GlcNAc(b1-3)GalNAc
# In short: as §1
binder,measurement,setting,value
rEtpA (Escherichia coli) (protein) MNRIYKLKFDKRRNELVVVSEITTGVGNAKATGSVEGEKSPRRGVRAMALSLLSGMMIMAHPAMSANLPTGGQIVAGSGSIQTPSGNQMNIHQNSQNMVANWNSFDIGKGNTVQFDQPSSSAVALNRVVGGGESQIMGNLKANGQVFLVNPNGVLFGEGASVSTSGFVASTRDIKNDDFMNRRYTFSGGQKAGAAIVNQGELTTNAGGYIVLAADRVSNSGTIRTPGGKTVLAASERITLQLDNGGLMSVQVTGDVVNALVENRGLVSARDGQVYLTALGRGMLMNTVLNVSGVVEASGMHRQDGNIVLDGGDSGVVHLSGTLQADNASGQGGKVVVQGKNILLDKGSNITATGGQGGGEVYVGGGWQGKDSNIRNADKVVMQGGARIDVSATQQGNGGTAVLWSDSYTNFHGQISAKGGETGGNGGRVETSSHGNLQAFGTVSASAKKGKAGNWLLDSADITIVNGSNVSKTETTQSPPHTQFAPTAAGSAVSNTSINNRLNNGTSVTILTHRTRTGTAQGGNITVNAAINKSNGSDVNLTLQAGGNITVNNSITSTEGKLNVNLSGARTSNGSITISNNANITTNGGDITVGTTNTSNRVNISINNTTLNASNGNIQLTGTGTDSGILFAGNNRLTASNIALTGNSTSGNAINLTGTATLNATNNITLTGSSTSGNAINLKGNNTLTASNITLTGESTSGNAINLTDTTGTTTLNATNNITMQGTRVQIKHSNITAGNFALNATVAGSEISNTTLTATNNINLAAKTNSASSGVYLKDARITSTNGSITANGTATANGKATHLDGNVTLNASNGRIKLTGNGHGSASGILFAGNNRLTASNIALTGNSTSGNAINLTGTATLNATNDITLTGSSTSGNAINLTGTATLNATNNITLTGSSTSGNAINLKGNNTLTASNITLTGESTSGNAINLTDTTGTTTLNATNNITMQGTRVQIKHSNITAGNFALNATVAGSEISNTTLTATNNINLAAKTNSASSGVYLKDARITSTNGSITANGTATANGKATHLDGNVTLNASNGRIKLTGNGHGSASGILFAGNNRLTASNIALTGNSTSGNAINLTGTATLNATNDITLTGSSTSGNAINLTGTATLNATNNITLTGSSTSGNAINLKGNNTLTASNITLTGESTSGNAINLTDTTGTTTLNATNNITMQGTRVQIKHSNITAGNFALNATVAGSEISNTTLTATNNINLAAKTNSASSGVYLKDARITSTNGSITANGTATANGKATHLDGNVTLNASNGRIKLTGNGHGSASGILFAGNNRLTASNIALTGNSTSGNAINLTGTATLNATNDITLTGSSTSGNAINLTGTATLNATNNITLTGSSTSGNAINLKGNNTLTASNITLTGESTSGNAINLTDTTGTTTLNATNNITMQGTRVQIKHSNITAGNFALNATVAGSEISNTTLTATNNINLAAKTNSASSGVYLKDARITSTNGSITTNGTATANGKATHLDGNVTLNASNGRIKLTGNGHGSASGILFAGNNRLTASNIALTGNSTSGNAINLTGTATLNATNDITLTGSSTSGNAINLTGTATLNATNNITLTGSSTSGNAINLKGNNTLTASNITLTGESTSGNAINLTDTTGTTTLNATNNITMQGTRVQIKHSNITAGNFALNATVAGSEISNTTLTATNNINLAAKTNSASSGVYLKDARITSTNGSITANGTAPANDNATYLDGNVTLNASNGSIKLTGNGNGSTSGILFAGNNTLTASNITLTGNSEVYWQKLGPEQKLISEEDLNSAVDHHHHHH,glycan array binding signal (z-score),[1],1.11
same,glycan array binding signal (z-score),[2],-0.205
same,glycan array binding signal (z-score),[3],-0.13
same,glycan array binding signal (z-score),[4],-0.351
same,glycan array binding signal (z-score),[5],0.413
same,glycan array binding signal (z-score),[6],-0.241
same,glycan array binding signal (z-score),[7],0.328
same,glycan array binding signal (z-score),[8],-0.364
same,glycan array binding signal (z-score),[9],0.339
same,glycan array binding signal (z-score),[10],0.231
same,glycan array binding signal (z-score),[11],-0.374
same,glycan array binding signal (z-score),[12],-0.166
same,glycan array binding signal (z-score),[13],-0.275
same,glycan array binding signal (z-score),[14],-0.076
same,glycan array binding signal (z-score),[15],0.401
same,glycan array binding signal (z-score),[16],0.706
same,glycan array binding signal (z-score),[17],-0.289
same,glycan array binding signal (z-score),[18],0.186
same,glycan array binding signal (z-score),[19],-0.168
same,glycan array binding signal (z-score),[20],-0.445
same,glycan array binding signal (z-score),[21],-0.086
same,glycan array binding signal (z-score),[22],0.296
